According to PubChem BioAssay AID1745853 (National Center for Advancing Translational Sciences (NCATS), 2022):
Where “and” joins values, the source holds several entries; their conditions need not be identical. Identical values can stand only once. Some of the results follow. Shown are side measurements of this screen, not its main read-out; they come without a call.

Assays:
Assay in all cases: Primary Screen for Target Class Profiling of Small Molecule Inhibitors of Methyltransferases
[1] = molecular target: Glycine N-methyltransferase (Homo sapiens) (UniProt Q14749); settings: purified enzyme, MTase-Glo SAH luminescence; measured here: GNMT inhibition; at 40 µM; stronger effect = lower value
Outline: (§1)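 Each enzyme was assayed with SAM and its substrate. SAH formation detected by MTase-Glo luminescence; single-point 40 uM screen[…].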

[2] = molecular target: Guanidinoacetate N-methyltransferase (Homo sapiens) (UniProt Q14353); settings: purified enzyme, MTase-Glo SAH luminescence; measured here: GAMT inhibition; at 40 µM; stronger effect = lower value
Outline: as §1

[3] = molecular target: Histamine N-methyltransferase (Homo sapiens) (UniProt P50135); settings: purified enzyme, MTase-Glo SAH luminescence; measured here: HNMT inhibition; at 40 µM; stronger effect = lower value
Outline: as §1

[4] = molecular target: Nicotinamide N-methyltransferase (Homo sapiens) (UniProt P40261); settings: purified enzyme, MTase-Glo SAH luminescence; measured here: NNMT inhibition; at 40 µM; stronger effect = lower value
Outline: as §1

[5] = molecular target: Phenylethanolamine N-methyltransferase (Homo sapiens) (UniProt P11086); settings: purified enzyme, MTase-Glo SAH luminescence; measured here: PNMT inhibition; at 40 µM; stronger effect = lower value
Outline: as §1
% is set by controls: 0 for no effect and ±100 for the full control effect.

SMILES	activity change, negative = inhibition [1]	activity change, negative = inhibition [2]	activity change, negative = inhibition [3]	activity change, negative = inhibition [4]	activity change, negative = inhibition [5]
COc1ccc(C(=O)N2CCCC3(COc4ccccc4C(=O)N3)C2)cc1 (configuration not stated)	-1.65%	1.71%	-0.22%	-7.67%	-4.05%
COc1ccccc1CNC(=O)CCc1nnc2n(Cc3ccc(Cl)cc3)c(=O)c3ccccc3n12	-3.9%	0%	2.57%	2.65%	-4.4%
O=C(c1nccc2ccccc12)N1CCc2c(nc(-c3ccccc3)[nH]c2=O)C1	-7.38%	-1.27%	0.195%	-3.68%	-9.75%
Clc1ccc(C2Nc3ccc(Cl)cc3C3C=CCC32)cc1 (configuration not stated)	-5.28%	3.87%	-3.84%	-3.13%	-12.8%
CCCn1c(=O)c2ccc(C(=O)NC3CCCCC3)cc2n2c(=O)n(CC(=O)c3ccc(OC)cc3)nc12	3.11%	0.215%	10.2%	2.29%	1.3%
O=C1N[C@@H]2CCN(C(=O)c3ccc(-c4ccccc4)cc3)[C@@H]2C(=O)N1Cc1ccccc1	-8.41%	-8.46%	-5.66%	-20.8%	-29.1%
O=c1cc(OCc2ccc(F)cc2)ccn1-c1ccc(OCCN2CCCC2)cc1	1.22%	-3.88%	-20.3%	-15.1%	-3.99%
CCc1ccc(C(=O)COC(=O)C(Cc2c[nH]c3ccccc23)NC(=O)c2ccc(Br)cc2)cc1 (configuration not stated)	-4.29%	-0.619%	-0.313%	-8.05%	-5.3%
O=C(c1ccc(F)cc1)N1CCCC(c2nc(-c3ccc(F)cc3)no2)C1 (configuration not stated)	-5.39%	–	-2.35%	–	–
COc1cccc(N2CCN(C(=O)c3ccc4c(=O)nc5c(-c6cccc(F)c6)n[nH]n5c4c3)CC2)c1	-15.3%	4.68%	-8.01%	-15.2%	-5.42%
CNC(=O)[C@@H]1C[C@@H](n2cc(CC(C)C)nn2)CN1	-2.61%	-4.48%	-2.26%	-7.24%	-6.4%
C/C(=C\CCC(C)(O)c1ccc(C)cc1)C(=O)O (configuration not stated)	4.41%	6.01%	8.43%	-5.12%	3.78%
Cc1cccc(N2C(=O)CSc3c(c4ccccc4n3C)C2C(=O)NCCCOC(C)C)c1C (configuration not stated)	-5.3%	4.08%	2.66%	-0.759%	-2.12%
Cc1ccc(NS(=O)(=O)c2ccc3[nH]c(=O)[nH]c3c2)cc1F	-7.01%	-2.93%	-7.22%	-12.9%	-33.6%
CCOC(=O)c1cc2n(n1)CC(C)(C(=O)NCc1ccccc1)N(Cc1cccc(OC)c1)C2=O (configuration not stated)	-3.48%	3.54%	-0.907%	-8.11%	-7.76%
COC(=O)c1ccnc(-c2cc(C(=O)Nc3ccc(C4(N)CC4)cc3)ccn2)c1	-23.7%	9.42%	-10.1%	-17.8%	-10.5%
COc1ccc(N(C(=O)C2CCCCC2)S(=O)(=O)c2ccc3c(c2)n(C)c(=O)n3C)cc1	-2.66%	2.5%	-2.02%	6.79%	-5.44%
CC(=O)N1CCCC(c2[nH]ccc2C(=O)N2CCN(c3ccccc3)CC2)C1 (configuration not stated)	-5.09%	-1.39%	-1.53%	2.23%	0.617%
COC(=O)c1ccc(NC(=O)N2Cc3c(sc4c3CCCC4)-n3cccc3C2c2cccc(F)c2)cc1 (configuration not stated)	-0.845%	1.39%	8.22%	-0.09%	6.3%

SMILES	activity change, negative = inhibition [1]	activity change, negative = inhibition [2]	activity change, negative = inhibition [3]	activity change, negative = inhibition [4]	activity change, negative = inhibition [5]
C/C(=C\CCC(C)(C)O)CCO[C@@H]1O[C@H](CO[C@@H]2O[C@@H](C)[C@H](O)[C@@H](O)[C@H]2O)[C@@H](O)[C@H](O)[C@H]1O	3.78%	2.1%	9.15%	-9.88%	-2.28%
CCOc1ccc(CN2C(=O)c3cc4sccc4n3CC2(C)C(=O)NC2CCCC(C)C2C)cc1 (configuration not stated)	-2.89%	1.33%	-1.2%	-1.61%	1.12%
O=C(Cn1ccc2cc(S(=O)(=O)N3CCCCC3)ccc21)NCc1ccc(Cl)cc1	-4.07%	4.44%	-0.638%	-5.32%	-2.75%
C[C@@H]1O[C@@H](O[C@H]2[C@@H]3C=CO[C@@H](O[C@@H]4O[C@H](CO)[C@@H](O)[C@H](O)[C@H]4O)[C@@H]3[C@@]3(CO)O[C@@H]23)[C@H](O)[C@H](O)[C@H]1OC(=O)/C=C/c1ccc(O)cc1	-1.99%	-3.73%	7.22%	-16.7%	-13.1%
CCc1ccc(-c2cc3n(n2)CC(C)(C(=O)NC2CCCCC2)N(Cc2ccccn2)C3=O)cc1 (configuration not stated)	-7.11%	3.98%	-2.72%	-10.7%	-4.28%
COC(=O)c1cccc(NC(=O)N2Cc3c(sc4c3CCCC4)-n3cccc3C2c2ccccc2)c1 (configuration not stated)	-1.83%	3.53%	-1.63%	-3.7%	0.626%
Cc1ccccc1N1C(=O)c2ccc(-c3ccco3)n2CC1(C)C(=O)NC1CCCC1 (configuration not stated)	-0.766%	1.14%	-0.823%	-0.586%	-4.94%
O=C1CCN(C(=O)c2ccsc2)CCCC(C(=O)N2CCN(c3ccccn3)CC2)CCN1 (configuration not stated)	-2.03%	2.24%	0.914%	0.088%	-1.14%
CC1C(=O)OCC2=CC[N+]3([O-])CCC(OC(=O)C(C)(O)C1(C)O)C23 (configuration not stated)	0.02%	-2.27%	8.14%	-13.6%	1.97%
NS(=O)(=O)NCCNc1nonc1C(=Nc1ccc(F)c(Br)c1)NO	1.48% and 3.66%	6.71% and 7.86%	8.61% and 4.12%	-3.75% and -10.2%	7.69% and 0.544%
O=C([C@@H]1CCCN1C(=O)Cn1ccc2ccccc2c1=O)N1CCOCC1	-10.1%	-9.67%	-3.87%	-11.8%	-11.6%
Nc1ncnc2c1ncn2[C@@H]1O[C@H](COP(=O)(O)OP(=O)(O)OP(=O)(O)OP(=O)(O)OC[C@@H]2O[C@H](n3cnc4c(N)ncnc43)[C@@H](O)[C@H]2O)[C@@H](O)[C@H]1O	–	–	385%	–	461%
CCc1ccc(NC(=O)N2CCn3c(C)ccc3C2CC)cc1 (configuration not stated)	-11.3%	-0.819%	-9.33%	-8.01%	-8.8%
OCc1nnc(C2CC(Nc3ncnc4ccccc34)C2)n1C1CC1 (configuration not stated)	-7.31%	-5.66%	-1.06%	-18.8%	7.31%
Cc1ncc(C(=O)N2CCC3(CC(=O)NC3=O)C2)c(-c2ccccc2)n1 (configuration not stated)	0.219%	2.66%	3.41%	1.34%	0.553%
COc1cc2c(cc1O)C1(Cc3ccc4c(c3C1O)OCO4)[N+](C)([O-])CC2 (configuration not stated)	-5.91%	2.17%	1.57%	-14%	1.91%
CN(C)CCC[C@@]1(c2ccc(F)cc2)OCc2cc(C#N)ccc21	–	-4.79%	–	-16.3%	-12%
CN1CCCCCC(O)c2cc(C(=O)N3CCN(c4ccc(F)cc4)CC3)ccc21 (configuration not stated)	-8.7%	-12.5%	-10.9%	-23.1%	-10.1%
